# Assays:
# MLL-AF9/FLT3-ITD cells = experiment: Cell Titer Glo assay against MA9-FLT3-ITD cells (1536-well, 48 hr)
# MA9-FLT3-ITD cells [1] = experiment: CellTiter-Glo luminescent viability assay, 72 hours, MA9-FLT3-ITD cells; assay type: cell-based, human; settings: FIG. 7
# MA9-FLT3-ITD cells [2] = experiment: Viability and recovery of MA9-FLT3-ITD cells after treatment (AnnexinV); assay type: cell-based, human; settings: 5 μM for 72 hours, then washed and replated
# MA9-FLT3-ITD cells [3] = experiment: FLT3-ITD AML xenograft model in NRGS mice; assay type: in vivo
compound,measurement,setting,value
"Clc1ccc2ncc(-c3cccc(NC4CCNC4)n3)n2c1 (centres unmarked) [Compound I-16, 6-(6-chloroimidazo[1,2-a]pyridin-3-yl)-N-(pyrrolidin-3-yl)pyridin-2-amine]",fold improvement of potency compared to compound I-15,MLL-AF9/FLT3-ITD cells,~2 fold
"Clc1ccc2ncc(-c3cccc(NC4CCCNC4)n3)n2c1 (centres unmarked) [Compound I-17, 6-(6-chloroimidazo[1,2-a]pyridin-3-yl)-N-(piperidin-3-yl)pyridin-2-amine]",activity against FLT3-ITD cells,MA9-FLT3-ITD cells [1],subnanomolar
"COc1cc2ncc(-c3cccc(NC4CCNC4)n3)n2cc1-c1cn[nH]c1 (centres unmarked) [Compound I-20, 6-(7-methoxy-6-(1H-pyrazol-4-yl)imidazo[1,2-a]pyridin-3-yl)-N-(pyrrolidin-3-yl)pyridin-2-amine]",day at which cells reached 50% viability after removal of compound,MA9-FLT3-ITD cells [2],3.4 days
"COc1cc2ncc(-c3cccc(NC4CCNC4)n3)n2cc1Cl (centres unmarked) [Compound I-21, 6-(6-chloro-7-methoxyimidazo[1,2-a]pyridin-3-yl)-N-(pyrrolidin-3-yl)pyridin-2-amine]",fold improvement of potency compared to compound I-15,MLL-AF9/FLT3-ITD cells,~8 fold
"COc1cc2ncc(-c3cccc(NC4CCNC4)n3)n2cc1-c1cnn(C)c1 (centres unmarked) [Compound I-24, 6-(7-methoxy-6-(1-methyl-1H-pyrazol-4-yl)imidazo[1,2-a]pyridin-3-yl)-N-(pyrrolidin-3-yl)pyridin-2-amine]",recovery of cells after treatment,MA9-FLT3-ITD cells [2],did not recover
same,activity against FLT3-ITD cells,MA9-FLT3-ITD cells [1],subnanomolar
same,median survival,"MA9-FLT3-ITD cells [3]; 30 mg/kg IP once daily, days 10-14 and 17-21, p=0.004, PBS 40 days",49 days
same,FLT3 and IRAK4 phosphorylation in sorted BM cells,"MA9-FLT3-ITD cells [3]; after 2 doses, 30 mg/kg IP, immunoblot",reduction of FLT3 and IRAK phosphorylation
"COc1cc2ncc(-c3cccc(NC4CCCNC4)n3)n2cc1-c1cn[nH]c1 (centres unmarked) [Compound I-29, 6-(7-methoxy-6-(1H-pyrazol-4-yl)imidazo[1,2-a]pyridin-3-yl)-N-(piperidin-3-yl)pyridin-2-amine]",fold decrease of potency compared to compound I-20,MLL-AF9/FLT3-ITD cells,3 fold
"COc1cc2ncc(-c3nc(NC4CCNC4)c(F)cc3F)n2cc1-c1cn[nH]c1 (centres unmarked) [Compound I-33, 3,5-difluoro-6-(7-methoxy-6-(1H-pyrazol-4-yl)imidazo[1,2-a]pyridin-3-yl)-N-(pyrrolidin-3-yl)pyridin-2-amine]",fold decrease of potency compared to compound I-20,MLL-AF9/FLT3-ITD cells,10 fold
"c1cc(NC2CCNC2)nc(-c2cnc3cc(OCCN4CCOCC4)c(-c4cn[nH]c4)cn23)c1 (centres unmarked) [Compound I-41, 6-(7-(2-morpholinoethoxy)-6-(1H-pyrazol-4-yl)imidazo[1,2-a]pyridin-3-yl)-N-(pyrrolidin-3-yl)pyridin-2-amine]",fold decrease of potency compared to compound I-20,MLL-AF9/FLT3-ITD cells,~14 fold

# From US11542261B2, “Substituted Imidazo[1,2-a]-pyridines as IRAK 1/4 and FLT3 inhibitors” (CHILDREN'S HOSPITAL MEDICAL CENTER, priority 2016, dated 2023)
